Results published in article PMC12040169 (PLOS Biology, 2025).
The other results are listed elsewhere or left out.

tested on: T1, C. trachomatis L2/434/Bu expressing GFP (CTL2-GFP); design: species or system HeLa; C. trachomatis total inclusion area by high-content imaging, normalised to DMSO; settings: total inclusion area; 28.5 h, 10 µM; inhibitor
T1 construct: L2/434/Bu GFP intracellular growth in HeLa cells
How it was run: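 Post-fluorescence-read fixation, DNA staining with Hoechst and high-content imaging; GFP inclusion area and number per well, and nuclei counts, used as proxies for bacterial growth and host viability.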

SMILES	% of control remaining
CN1CCN(CCCN2C(=O)CSC2c2cccc([N+](=O)[O-])c2)CC1 (stereo not drawn) [CBK278237C]	73.9326
CCC(C)NC1=NC(=O)C(CC(=O)Nc2ccccc2Cl)S1 (stereo not drawn) [CBK059133T]	93.8841
CCCc1ccc(S(=O)(=O)Nc2c(C(=O)N(CC)CC)[nH]c3ccccc23)cc1 [CBK050111]	99.8185
O=C(CSc1ccc2ccccc2n1)Nc1ccnc2ccccc12 [CBK176848]	59.8941
O=C(O)CNS(=O)(=O)c1cc(Cl)c(Cl)cc1Cl [CBK266136]	125.881
Cc1cc(CN2CCC(O)(c3cccnc3F)CC2)oc1C [CBK282124]	101.048
Nc1nnc(SCC(=O)N2CCN(C(c3ccccc3)c3ccccc3)CC2)n1-c1ccccc1 [CBK266696]	75.9551
O=C(O)c1cccc(NS(=O)(=O)c2ccc(S(=O)(=O)N3CCCCC3)cc2)c1 [CBK295295]	107.237
S=C(NCC1CCN(C(=S)Nc2cccc3ccccc23)CC1)Nc1cccc2ccccc12 [CBK016070]	87.8366
N#CCCN(C(=O)NCc1cccc2ccccc12)C1CCCCC1 [CBK156353]	78.6143
COc1cccc(OCCO)c1 [CBK000514]	107.245
COc1cc(NC(=O)CC2(C(=O)O)CCCCC2)ccc1N1CCCC1=O [CBK296761]	117.143
CCn1c(CNC(=O)c2cn3cc(C)ccc3n2)nc2ccccc21 [CBK281395]	84.1612
O=C(NCCNCCNC(=O)C1(c2ccccc2)CCCC1)C1(c2ccccc2)CCCC1 [CBK017670]	2.204
Cc1cccc(NC(=O)C(CC(=O)O)NCc2ccccc2)c1 (stereo not drawn) [CBK266821]	95.6153
CC(C)Nc1nc2cc(Cl)c(Cl)cc2nc1Sc1nc[nH]n1 [CBK115261]	88.6569
COc1cncc(-c2cncc(NCCCN3CCOCC3)n2)c1 [CBK037902]	93.3838
COc1ccc(CCN2CCN(c3nccnc3OCC3COc4ccccc4O3)CC2)cc1OC (stereo not drawn) [CBK082808T]	72.7318
CS(=O)(=O)c1ccc(Cn2ccnc(N3CCN(C(=O)C4CCCCC4)CC3)c2=O)cc1 [CBK153771]	81.9993
CC(C)NC(=O)[C@@H](C)C1CC[C@@]2(C)CC[C@H](NC(=O)c3ccncc3)[C@@H](C)[C@@H]2[C@H]1O (stereo partly drawn) [CBK289449]	122.397
Cc1ccc(C2(O)CCN(Cc3cnn(C)c3C)CC2)cc1 [CBK282736]	121.672
Cc1nc(-c2cccnc2)[nH]c(=O)c1CC(=O)N(C)C1CCCCC1 [CBK306310]	19.0671
CCCCN(C)S(=O)(=O)c1ccc(C(C)(C)CC)cc1 [CBK044836]	93.2686
Cc1ccc(-c2nnc(SCc3cccc4nsnc34)n2C)cc1 [CBK269706]	92.5628
O=c1[nH]c(Nc2ccccc2)nc2nccc(-c3ccccc3)c12 [CBK288072]	99.3669
CN1CCN(c2ccccc2NC(=O)c2ccc3ccccc3c2)CC1 [CBK268486]	88.0779

SMILES	% of control remaining
COc1ccc(-c2nccnc2NCC2CC2)cc1 [CBK038048]	143.145
COc1ccc(C(C)C)cc1-c1nc2ncccc2cc1N [CBK067614]	66.1055
Cc1cccc(NCC2CCN(Cc3cc(=O)n4ccccc4n3)C2)n1 (stereo not drawn) [CBK305756]	4.6
CN(C)CCNC(=O)c1sc2ccccc2c1CC1CCCCCN1C(=O)C1CCC1 (stereo not drawn) [CBK286096]	80.9182
COc1ccccc1-c1noc(C2CCN(S(=O)(=O)c3ccc(F)cc3)CC2)n1 [CBK269401]	90.7289
Cc1cccc(OCC(C)NC(=O)NCCc2cnn(C)c2)c1 (stereo not drawn) [CBK304887]	14.8301
NC(=O)C1(N2CCCCC2)CCN(CC(=O)Nc2ccccc2Sc2ccccc2)CC1 [CBK268488]	92.3008
Cc1nnnn1-c1cc(NC(=O)N(C)C(C)C)ccc1F [CBK304708]	89.2336
O=[N+]([O-])c1ccccc1S(=O)(=O)Nc1ccc(S(=O)(=O)Nc2ncccn2)cc1 [CBK264768]	64.1214
O=C(NC(=S)Nc1cccc2c(O)cccc12)c1ccc(-c2ccccc2)cc1 [CBK269022]	78.7809
O=C(CSc1nnc2ccc(-c3ccccc3)nn12)N1CCCCC1 [CBK287678]	96.3434
Cc1cnc2c(c1)cc(C(F)(F)F)n2CC(=O)NC1CC1 [CBK282887]	91.4632
O=C(O)[C@@H]1CCCN1C(=O)C1CCC(Cn2nnc3ccccc3c2=O)CC1 (stereo partly drawn) [CBK286658]	98.0755
FC(F)(F)c1ccc(SCc2ccccc2)nc1 [CBK103715]	93.8955
Cc1nc2sccn2c1CN1CCCC(C(=O)N2CCOCC2)C1 (stereo not drawn) [CBK305390]	69.5616
CCn1c(SCC(=O)Nc2cc(Cl)ccc2O)nnc1-c1ccccc1 [CBK269680]	91.845
CC(C)COC(=O)N1CCN(C2CCc3cc(-c4ccc([S+](C)[O-])cc4)ccc3C2)CC1 (stereo not drawn) [CBK173425]	110.742
O=C(C1CCCCC1)N1CCC(n2nc(C3CC3)ccc2=O)CC1 [CBK284240]	98.9269
CC(=O)Nc1cccc(CN2CCCC2CC(O)c2ccccc2)c1 (stereo not drawn) [CBK305136]	81.3321
O=C(O)/C=C/C(=O)N(Cc1ccccn1)Cc1ccco1 [CBK286660]	93.8127
Cc1cnc(CNC(=O)c2ccc(-c3ccoc3)nc2)cn1 [CBK156267]	127.985
Ic1cnn(Cc2nc(-c3ccc4c(c3)OCO4)no2)c1 [CBK270050]	85.6606
O=S(=O)(Nc1cccc2[nH]ccc12)c1sc(Cl)cc1Br [CBK153552]	96.6516
Fc1cccc(Sc2nnnn2-c2ccccc2)c1 [CBK002906]	95.3325
O=C(Nc1ccc(Cl)c(Cl)c1)c1cnc2n(c1=O)CCS2 [CBK287381]	84.7311
